Data taken from PubChem BioAssay AID1963576 (National Center for Advancing Translational Sciences (NCATS), 2024).
Screen size: about 46,000 compounds; about 60 (0.1%) were called active. Another 3% or so got no clear call; they are omitted. Calls come from the whole dose curve; as a rule, active = well fitted inhibition curve with a large enough effect; inconclusive = small, poorly fitted or top-dose-only effect; inactive = no such curve, though single readings can be large or run the other way. This is one part of the list.

Assay: Primary qHTS assay for Inhibitors of ovarian cancer metastasis using an organotypic tumor microenvironment (TME) model.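 For activity change, negative = inhibition: plate controls were DMSO wells for no effect and tomatine positive control wells for full effect.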 Note: nearly all actives have a fitted effect of over 65% in size.
Settings: SKOV3ip1-GFP adhesion/invasion on 3D omental model, fluorescence; series mostly up to 45.8 µM; activity change, negative = inhibition: at the top concentration
Summary of the method: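 qHTS, 4-pt dose (0.36-46 umol/L); SKOV3ip1-GFP, 1,200 cells/well, no FBS; primary omental fibroblast/mesothelial co-culture 48 h pre-grown; 2 h RT + 16 h 37 C; PBS wash, 4% PFA; GFP count 488/509 nm.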

Activity change, negative = inhibition, inactive:
CCCCNc1cc(C(=O)O)cc(S(N)(=O)=O)c1Oc1ccccc1 -3.49%
Cc1nn2c(-c3cccc(NC(=O)c4ccc(Cl)cc4)c3)nnc2c2ccccc12 -2.11%
CCCCOCc1cc(CN2CCN(c3cccc(Cl)c3)CC2)c(O)c2ncccc12 -23.5%
COc1ccc(-n2c(-c3ccco3)nc3c(cnn3-c3ccc(C)cc3)c2=O)cc1 9.19%
CC(C)C(=O)Nc1ccc2nc(SCCOc3ccccc3)sc2c1 5.02%
CCn1c(=O)n(CC)c2cc(N3CCCCC3)c(NC(=O)Nc3cc(Cl)ccc3OC)cc21 -3.46%
COc1ccccc1NC(=O)C1=C(C)Nc2nc(SCc3cc(C)ccc3C)nn2C1c1ccccc1 (configuration not stated) 8.05%
CC(C)Cn1c(/C=C/c2ccc(F)cc2)nc2ccccc21 -13.8%
O=C(c1cccs1)N1CCCc2cc(NS(=O)(=O)c3ccc(F)cc3)ccc21 -8.77%
O=C(CSc1nnc(CNC(=O)c2c(F)cccc2Cl)o1)Nc1cccc(F)c1 -5.11%
CCOc1ccc(NS(=O)(=O)c2ccc(NC(=O)N3CCCC3)cc2)cc1 -2.08%
O=C(Nc1ccc2nn(-c3ccccc3)nc2c1)c1ccc(-c2cccc(Cl)c2)o1 -23.4%
CCOc1ccc(C(=O)N2CCN(Cc3cc(=O)n4nc(-c5ccccc5Cl)sc4n3)CC2)cc1 4.78%
CCn1c(C)c(C)c2cc(C(=O)NCCc3ccc(C)cc3)ccc21 5.57%
O=C(c1ccc2c(=O)n(CCc3ccccc3)c(=O)[nH]c2c1)N1CCN(c2ccc(Cl)cc2)CC1 -5.85%
Cc1ccc(NC(=O)Cn2c(=O)ccc3cc(S(=O)(=O)N4CCC(C)CC4)ccc32)cc1Cl -4.54%
Cc1ccc(C)c(NC(=O)c2cc(=O)c3cc(C)cc(C)c3o2)c1 -1.11%
COc1cccc(NC(=O)CCNC(=O)Cn2ccc3ccccc3c2=O)c1 -1.77%
Cc1ccccc1CS(=O)(=O)Cc1ccc(C(=O)NCc2ccc(F)cc2)o1 2.99%
O=C1CC(c2ccc(Cl)cc2)N=C(NC(=O)c2ccccc2)N1 (configuration not stated) 2.38%
COc1ccc(CNC(=O)C2CCN(S(=O)(=O)c3cccc4nonc34)CC2)cc1OC 3.5%
COCCNc1ncnc2c1c(-c1ccccc1)cn2-c1cccc(Cl)c1 -0.178%
CC(C)C(=O)OCc1cc(=O)n2nc(C3CCCCC3)sc2n1 5.41%
Cc1ccc(NC(=O)C2CCCN2S(=O)(=O)c2cccc3cccnc23)cc1C (configuration not stated) -3.6%
CCN(CC)c1ccc(C2C(C(N)=O)=C(C)Nc3ncnn32)cc1 (configuration not stated) 47.7%
CCCCNC(=O)CCc1c(C)nc2c(c(C)nn2-c2ccccc2)c1C -24.1%
CCC(C(=O)Nc1ccc(C(C)=O)cc1)n1c(C)c2cnn(-c3ccccc3)c(=O)c2c1C (configuration not stated) -11.5%
Cn1c(=O)c2c(nc(SCC(=O)Nc3ccc(F)cc3)n2Cc2ccccc2)n(C)c1=O 0.317%
COc1ccc(NS(=O)(=O)c2ccc3[nH]c4c(c3c2)CCCCCC4)cc1 -7.66%
Cc1cccc(CS(=O)(=O)c2ncc(Cl)c(C(=O)NCc3ccccc3)n2)c1 -12.4%
COc1ccccc1N1CCN(C(CNC(=O)C(=O)NCCc2ccccc2)c2cccnc2)CC1 (configuration not stated) 0.887%
O=C(NCCc1ccccc1)c1cc(Sc2ccc(F)cc2F)nc2ccccc12 9.98%
COc1cccc(OCc2nc3ccccc3n2CCOc2cccc(C)c2)c1 -8.18%
COc1ccc(-c2onc(C)c2C)cc1S(=O)(=O)NC1CCC(C)CC1 (configuration not stated) -5.15%
Cc1ccc(OCC(=O)Nc2ccc(C(=O)OCc3cc(=O)n4c(C)csc4n3)cc2)cc1 -1.39%
O=C(Nc1ccc(F)cc1F)c1ccc(-n2cnnc2)cc1 -8.27%
O=C(NCC12CC3CC(CC(C3)C1)C2)c1cc2nc(-c3ccc(F)cc3)cc(C(F)(F)F)n2n1 1.84%
CCc1ccc(C2c3c(oc4ccc(C)cc4c3=O)C(=O)N2c2nc(C)c(C)s2)cc1 (configuration not stated) -2.2%
COc1cccc(-c2ccc3c(N)c(C(=O)Nc4ccc(C)c(F)c4)sc3n2)c1 -35.9%
CNC(=O)COc1ccc(Nc2nnc(-c3ccc(C)c(S(=O)(=O)NC(C)(C)C)c3)c3ccccc23)cc1 1.6%
CCOc1cc(C2c3c(-c4ccccc4O)n[nH]c3C(=O)N2CCc2ccccc2)ccc1O (configuration not stated) -10.1%
Cc1ccc(-n2c(=O)c3oc4ccccc4c3n(CC(=O)Nc3ccccc3)c2=O)cc1C -4.64%
COc1ccc(N2CCN(C(=O)Nc3cccc(C(F)(F)F)c3)CC2)cc1 -0.841%
CC(C)CNC(=O)C1=CC(c2ccc3c(c2)OCO3)=NS(=O)(=O)N1C 8.73%
Cc1cc(-n2c(C)nc3ccccc3c2=O)ccc1NC(=O)c1cccc([N+](=O)[O-])c1 -4.29%
CCOC(=O)c1c(NC(=O)c2cc(-c3ccc(OC)cc3)on2)sc(C)c1C -1%
Oc1c(C(c2ccccc2)N2CCN(c3ccccc3)CC2)sc2nc(-c3ccco3)nn12 (configuration not stated) -1.89%

outcome, inactive:
CCS(=O)(=O)N1CCc2cc(C(=O)Nc3cc(Cl)ccc3C)ccc21
COc1ccc(CCNC(=O)CCS(=O)(=O)c2ccc3c(c2)oc(=O)n3C)cc1OC
Cc1ccc(N2CCN(C(=O)c3cn(C)c4ccc(S(=O)(=O)N(C)C5CCCCC5)cc4c3=O)CC2C)cc1 (configuration not stated)
CCOC(=O)c1c(C)[nH]c(CCC(=O)Nc2ccccc2C(=O)OC)c1C
COCCCNC(=O)CCc1c(C)nc2cc(-c3ccc(Cl)cc3)nn2c1C
CCc1ccc(NCc2cc3cc4c(cc3n(CC(=O)Nc3ccc(F)cc3)c2=O)OCCO4)cc1
Cc1ccc(NC(=O)CSc2nnc(N)s2)c(C)c1
Cn1ccnc1SCC(=O)Nc1cc(Cl)ccc1Cl
Fc1ccc(CNc2nc(-c3ccccc3)cc(C(F)(F)F)n2)cc1
Cc1ccccc1CN1CCCN(CC(=O)Nc2c(C)cccc2C)S1(=O)=O
COc1ccc(-c2cc(C(F)(F)F)nc(SCCC(=O)Nc3c(C)cccc3C)n2)cc1
COc1cc(NC(=O)Cn2cc(S(=O)(=O)c3ccccc3)c(=O)c3ccccc32)cc(OC)c1
CCc1ccccc1NC(=O)Cc1c(C(=O)O)[nH]c2ccc(Cl)cc12
Cc1ccc(Cn2c(CNC(=O)c3ccccc3Br)nc3cccnc32)cc1
O=C(NCCc1ccccc1)C(=O)Nc1cccc(Br)c1
